Whole data set: some 18,000 sequences, median “TetR repression strength (sort-seq, GFP reporter)” near 0.23, cut for the highest 2% near 0.68. The list shows a part of the results.
What follows are sequences tested against TetR (class B, Tn10) (UniProt P04483) (assay: TetR repression strength (sort-seq, GFP reporter) (relative to tetO2 = 1); higher = stronger repression). Settings: E. coli.
UniProt P04483, sequence (P04483 whole entry): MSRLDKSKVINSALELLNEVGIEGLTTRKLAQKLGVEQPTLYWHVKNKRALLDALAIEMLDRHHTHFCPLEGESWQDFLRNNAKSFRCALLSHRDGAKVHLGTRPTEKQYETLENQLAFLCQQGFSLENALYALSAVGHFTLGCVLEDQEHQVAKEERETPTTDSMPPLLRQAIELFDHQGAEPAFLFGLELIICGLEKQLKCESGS
Procedure, shortened: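 Escherichia coli SIG10-MAX cells carried a low-copy plasmid library in which eight operator positions were randomized between a constitutive promoter and sfGFP, and TetR was expressed constitutively. After 5 h of growth at 37 °C in LB with 50 µg/mL chloramphenicol, 10^6 cells were FACS-sorted into 13 fluorescence bins, and each bin was Illumina-sequenced. Repression strength was the top bin index plus one minus the read-weighted mean bin, divided by the value for the unaltered operator. Across three independent transformations, only library members with ≥30 reads in every replicate and a CV ≤0.5 were averaged.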
TCCCGAGGAGTCGACGAGA showed a TetR repression strength of 0.389. With TCCCGTGAAGTGCGGGAGA the TetR repression strength was 0.176. In the case of TCCCAACCAGTTCCCGAGA, the TetR repression strength is reported as 0.38. TCCCCAAGAGTGGGGGAGA gave a TetR repression strength of 0.229. Work on TCCCTTAGAGTAATTGAGA yielded a TetR repression strength of 0.134. Work on TCCCGTTGAGTATACGAGA yielded a TetR repression strength of 0.185. TCCCGCCCAGTCAATGAGA showed a TetR repression strength of 0.249. With TCCCATGCAGTGTGTGAGA the TetR repression strength was 0.138. With TCCCGACTAGTGGTCGAGA the TetR repression strength was 0.118. TCCCGTACAGTCCGTGAGA was tested, and the TetR repression strength was 0.145. Work on TCCCAACTAGTGGGAGAGA yielded a TetR repression strength of 0.295. Work on TCCCCCTGAGTATCTGAGA yielded a TetR repression strength of 0.436. TCCCTCTAAGTGAGTGAGA showed a TetR repression strength of 0.162. TCCCGGTCAGTTCCTGAGA gave a TetR repression strength of 0.26. In the case of TCCCTTTTAGTGTATGAGA, the TetR repression strength is reported as 0.271. For TCCCGGTTAGTGCTGGAGA, the TetR repression strength was 0.608. TCCCGTTGAGTTAATGAGA showed a TetR repression strength of 0.206. For TCCCTCTCAGTGTTTGAGA, the TetR repression strength was 0.311. TCCCAAGGAGTAAGGGAGA showed a TetR repression strength of 0.325. TCCCTTGGAGTTTGAGAGA was tested, and the TetR repression strength was 0.058. In the case of TCCCAGTGAGTAAGGGAGA, the TetR repression strength is reported as 0.0789. TCCCGAGTAGTCAGGGAGA showed a TetR repression strength of 0.0074. TCCCAGAGAGTGTTGGAGA gave a TetR repression strength of 0.452. Work on TCCCTTGGAGTTGGTGAGA yielded a TetR repression strength of 0.136. TCCCGCATAGTTTAAGAGA showed a TetR repression strength of 0.376. TCCCAACCAGTGGCGGAGA gave a TetR repression strength of 0.313. TCCCCCGCAGTAGGCGAGA was tested, and the TetR repression strength was 0.371. TCCCAACGAGTGGTAGAGA showed a TetR repression strength of 0.0691. TCCCCGGCAGTCTGGGAGA showed a TetR repression strength of 0.271. In the case of TCCCCCTAAGTGACTGAGA, the TetR repression strength is reported as 0.363. TCCCTAATAGTGAAAGAGA was tested, and the TetR repression strength was 0.412. With TCCCTGGCAGTGGTAGAGA the TetR repression strength was 0.212. Work on TCCCATGGAGTGGTAGAGA yielded a TetR repression strength of 0.403. Sequence TCCCCTACAGTTATAGAGA has a TetR repression strength of 0.294. TCCCGGATAGTACGGGAGA was tested, and the TetR repression strength was 0.261. Sequence TCCCGAGCAGTACGTGAGA has a TetR repression strength of 0.172. With TCCCAAAAAGTCCGCGAGA the TetR repression strength was 0.236. In the case of TCCCAGGTAGTTTGGGAGA, the TetR repression strength is reported as 0.157. TCCCTAAAAGTATGGGAGA was tested, and the TetR repression strength was 0.295. For TCCCGGAAAGTGGGAGAGA, the TetR repression strength was 0.408. In the case of TCCCAGGGAGTTGACGAGA, the TetR repression strength is reported as 0.0614. Work on TCCCTGGCAGTTTTTGAGA yielded a TetR repression strength of 0.196. TCCCGTTGAGTGCAGGAGA was tested, and the TetR repression strength was 0.424. Sequence TCCCGGGTAGTCATCGAGA has a TetR repression strength of 0.426. TCCCATGTAGTTGGGGAGA was tested, and the TetR repression strength was 0.248. TCCCTGCAAGTTTAAGAGA was tested, and the TetR repression strength was 0.196. TCCCGTAGAGTGGTCGAGA gave a TetR repression strength of 0.104. TCCCACGCAGTGTTTGAGA gave a TetR repression strength of 0.145. Sequence TCCCCTGAAGTCGGGGAGA has a TetR repression strength of 0.253. TCCCAACAAGTACTGGAGA was tested, and the TetR repression strength was 0.206. Work on TCCCCTGCAGTACGGGAGA yielded a TetR repression strength of 0.088. Sequence TCCCTTGCAGTGGTTGAGA has a TetR repression strength of 0.267. TCCCGGTTAGTCCAGGAGA showed a TetR repression strength of 0.248. TCCCCGCGAGTAGTTGAGA was tested, and the TetR repression strength was 0.311. TCCCATATAGTTTGGGAGA was tested, and the TetR repression strength was 0.175. In the case of TCCCGGGGAGTAATCGAGA, the TetR repression strength is reported as 0.057. Work on TCCCCTATAGTGATAGAGA yielded a TetR repression strength of 0.982. Work on TCCCGGTAAGTGATGGAGA yielded a TetR repression strength of 0.338. Work on TCCCGGGGAGTGAGCGAGA yielded a TetR repression strength of 0.15. TCCCTGACAGTAGACGAGA was tested, and the TetR repression strength was 0.207. TCCCATGCAGTGTTGGAGA showed a TetR repression strength of 0.239. TCCCGAAGAGTAAAGGAGA showed a TetR repression strength of 0.433. In the case of TCCCCTTCAGTAGCAGAGA, the TetR repression strength is reported as 0.258. In the case of TCCCTAAGAGTAAACGAGA, the TetR repression strength is reported as 0.446. For TCCCGCCGAGTGTGGGAGA, the TetR repression strength was 0.23. TCCCGGAGAGTGACCGAGA showed a TetR repression strength of 0.198. With TCCCCGGAAGTGATCGAGA the TetR repression strength was 0.155. In the case of TCCCCTCTAGTAACCGAGA, the TetR repression strength is reported as 0.289. Work on TCCCATTAAGTCGGCGAGA yielded a TetR repression strength of 0.376. In the case of TCCCGGACAGTAACGGAGA, the TetR repression strength is reported as 0.312. In the case of TCCCGCCGAGTCAAGGAGA, the TetR repression strength is reported as 0.523. In the case of TCCCTGCTAGTGCAAGAGA, the TetR repression strength is reported as 0.372. For TCCCCGATAGTGGGAGAGA, the TetR repression strength was 0.0854. For TCCCTAAGAGTGGCGGAGA, the TetR repression strength was 0.211. Sequence TCCCTTCAAGTGGGTGAGA has a TetR repression strength of 0.196. Sequence TCCCTTGTAGTAAGCGAGA has a TetR repression strength of 0.125. For TCCCTGCTAGTGACAGAGA, the TetR repression strength was 0.21. For TCCCTGTCAGTGCCGGAGA, the TetR repression strength was 1.03. TCCCACGCAGTGATAGAGA gave a TetR repression strength of 0.415. Sequence TCCCGGGAAGTCTGAGAGA has a TetR repression strength of 0.31. TCCCTTCTAGTTAGGGAGA gave a TetR repression strength of 0.519. TCCCTTGTAGTAAAGGAGA showed a TetR repression strength of 0.228. TCCCATGCAGTGCCCGAGA showed a TetR repression strength of 0.18. For TCCCTTGGAGTTGAAGAGA, the TetR repression strength was 0.158. Work on TCCCACATAGTTTAGGAGA yielded a TetR repression strength of 0.26. TCCCGTGCAGTATTAGAGA was tested, and the TetR repression strength was 0.0608. Work on TCCCCTTGAGTCCTAGAGA yielded a TetR repression strength of 0.489. TCCCGCAGAGTGACGGAGA showed a TetR repression strength of 0.129. TCCCGAGGAGTCCACGAGA showed a TetR repression strength of 0.394. TCCCGGTTAGTGGTTGAGA was tested, and the TetR repression strength was 0.192. For TCCCCGGTAGTAGTAGAGA, the TetR repression strength was 0.198. For TCCCCATAAGTTAGGGAGA, the TetR repression strength was 0.145. In the case of TCCCGTAGAGTGTGGGAGA, the TetR repression strength is reported as 0.113. TCCCCGATAGTCTGTGAGA showed a TetR repression strength of 0.301. TCCCGTATAGTATGGGAGA was tested, and the TetR repression strength was 0.0193. TCCCATTCAGTATCGGAGA was tested, and the TetR repression strength was 0.159. For TCCCCGCGAGTCGATGAGA, the TetR repression strength was 0.0756. TCCCGCGTAGTTGAGGAGA was tested, and the TetR repression strength was 0.161. Sequence TCCCCGTGAGTGCGAGAGA has a TetR repression strength of 0.177. TCCCGGATAGTTCTTGAGA was tested, and the TetR repression strength was 0.0968. For TCCCTATCAGTAATAGAGA, the TetR repression strength was 0.878. TCCCCTCAAGTTTACGAGA showed a TetR repression strength of 0.233.

From a collection of fitness landscapes (doi:10.1038/s41467-024-54723-y)
